What was measured:
[1] = tested on: LLC-PK1 cells; test: ouabain-mediated cell proliferation; format: cell-based; settings: 1 μM peptide, 10 nM ouabain, FIG. 8
Experimental: (§1) The cells were then stimulated with 100 nM ouabain for 10 minutes and assayed for phosphorylated ERK by Western blot.

[2] = tested on: ouabain-induced ERK phosphorylation in LLC-PK1 cells; test: ouabain-induced ERK phosphorylation, Western blot; format: cell-based; settings: 0.5 μM peptide for 1 hour, then 100 nM ouabain for 10 minutes, FIG. 7A
Experimental: as §1

“NaSH2: CD2C2 synthesized with the same TAT tag, not phosphorylated at Y260 (GRKKRRQRRRPPQSTNCVEGTARGIVVYTGD; TAT tag; HIV-TAT NaSH2 Fusion Peptide)” was tested, and the “inhibition of ouabain-induced cell proliferation” value [1] was “ineffective at the concentration utilized” and the “ouabain-induced ERK phosphorylation” value [2] was “but not NaSH2”.

— patent publication US10781431B2, “Cardiotonic steroid antagonists and related methods” (MARSHALL UNIVERSITY RESEARCH CORPORTION, priority 2014, dated 2020)
